In all, about 310,000 compounds went through this assay and about 2,200 (0.71%) showed an effect of 50% or more. Effects have a minus sign here. Some of the results follow.
The compounds below were run against human ether-à-go-go-related gene (hERG) potassium channel (human, UniProt Q12809) (assay: primary screen, population patch clamp on CHO cells stably expressing hERG).
Sequence of human ether-à-go-go-related gene (hERG) potassium channel (Q12809 whole entry, looked up): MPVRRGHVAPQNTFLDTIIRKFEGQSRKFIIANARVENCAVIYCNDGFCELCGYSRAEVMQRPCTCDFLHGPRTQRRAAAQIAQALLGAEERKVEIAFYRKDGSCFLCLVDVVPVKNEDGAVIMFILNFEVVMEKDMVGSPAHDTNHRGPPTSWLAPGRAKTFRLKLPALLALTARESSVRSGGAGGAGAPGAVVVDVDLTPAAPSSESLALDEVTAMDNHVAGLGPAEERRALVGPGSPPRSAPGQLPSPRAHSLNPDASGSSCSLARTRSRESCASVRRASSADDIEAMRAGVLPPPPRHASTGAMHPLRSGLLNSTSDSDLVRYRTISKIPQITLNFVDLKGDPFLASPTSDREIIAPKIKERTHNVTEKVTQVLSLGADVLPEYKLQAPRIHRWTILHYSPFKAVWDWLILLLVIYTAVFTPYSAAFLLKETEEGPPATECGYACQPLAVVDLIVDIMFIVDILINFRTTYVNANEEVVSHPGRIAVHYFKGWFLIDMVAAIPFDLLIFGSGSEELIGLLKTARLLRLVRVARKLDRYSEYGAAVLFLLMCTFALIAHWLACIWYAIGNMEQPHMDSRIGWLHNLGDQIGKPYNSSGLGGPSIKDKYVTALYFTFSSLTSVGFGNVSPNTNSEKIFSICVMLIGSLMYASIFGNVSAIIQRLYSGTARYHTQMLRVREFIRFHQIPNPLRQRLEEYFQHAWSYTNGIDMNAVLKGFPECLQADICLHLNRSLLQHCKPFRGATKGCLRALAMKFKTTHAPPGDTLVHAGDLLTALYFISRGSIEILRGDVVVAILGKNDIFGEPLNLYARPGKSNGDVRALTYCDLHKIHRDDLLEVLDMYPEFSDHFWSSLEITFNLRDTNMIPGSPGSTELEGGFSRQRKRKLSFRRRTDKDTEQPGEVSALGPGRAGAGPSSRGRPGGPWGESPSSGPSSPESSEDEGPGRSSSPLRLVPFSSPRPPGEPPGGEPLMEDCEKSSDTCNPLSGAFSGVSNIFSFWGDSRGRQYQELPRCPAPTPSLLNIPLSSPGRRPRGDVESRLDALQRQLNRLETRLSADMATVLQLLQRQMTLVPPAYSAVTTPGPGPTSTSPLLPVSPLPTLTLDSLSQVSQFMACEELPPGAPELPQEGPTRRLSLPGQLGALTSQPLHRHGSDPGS

SMILES | hERG current change (%, negative = inhibition) at 1uM [%]
CCOC(=O)CN1C(=O)S/C(=C/c2ccc(C)o2)C1=O | -33.7
CC12CN3CC(C)(CN(C1)C3c1cccnc1)C2=O (stereo not drawn) | 5.77
O=C(CN1CCN(S(=O)(=O)c2ccc(Br)cc2)CC1)N/N=C/c1cc([N+](=O)[O-])ccc1Cl | 1.52
COc1ccccc1-n1c(CNC(=O)c2ccco2)nnc1SCC(=O)Nc1nccs1 | 10.4
COC(=O)c1cc(S(=O)(=O)N2CCN(c3ccc(F)cc3)CC2)cn1C | 11.6
Cc1cc([N+](=O)[O-])c(N2CCC[C@@H]2C(=O)O)c([N+](=O)[O-])c1 | 16.9
COc1ccccc1NC(=O)CSc1nnc(CSc2nc(C)cc(C)n2)o1 | 15.8
COc1ccc(OCC(=O)N2CCCC2=O)c([N+](=O)[O-])c1 | 12.4
Cc1ccc(CNC(=O)c2ccc(N3CCC4(CC3)CC(c3ccccc3)=NO4)c(NC(=O)c3ccccc3)c2)cc1 | 13.5
CC(C)=NNc1nc2c(c(=O)[nH]c(=O)n2C)n1CCCc1ccccc1 | 14
O=C(Nc1ccc(S(=O)(=O)Nc2nccs2)cc1)c1nn(-c2ccccc2)ccc1=O | 14.8
CCN1C[C@@]2(COC)C3[C@@H](OC)[C@H]4[C@@H]1[C@@]3(C1C[C@H]3[C@H](OC(C)=O)C1[C@]4(OC(C)=O)C[C@H]3OC)[C@@H](OC)C[C@H]2OC(C)=O (stereo partly drawn) | 1.04
CN(c1ccc(C(=O)N/N=C/c2cccc([N+](=O)[O-])c2)cc1)S(=O)(=O)c1ccccc1 | 16
COC(=O)CNC(=O)C1CCC(CNS(=O)(=O)c2cccc3nsnc23)CC1 (stereo not drawn) | 16.6
N#Cc1c(N)nc2c(c1-c1ccco1)CCCCC2 | 12.2
CCC1(CC)C(=O)N(C)C(=O)NC1=Nc1ccc(OC)cc1 | 12
OC12CCCCC1C(c1ccc3c(c1)OCO3)N(Cc1ccccc1F)CC2 (stereo not drawn) | 1.69
COC(=O)C1C(=O)c2c([nH]c(C(=O)OC3CCCCCC3)c2C)CC1C (stereo not drawn) | 9.78
O=C1c2ccccc2NC(c2cn[nH]c2-c2ccccc2)N1O (stereo not drawn) | 5.48
Cc1ccc(C23CC4CC(CC(C(=O)NC(C)C(=O)O)(C4)C2)C3)cc1 (stereo not drawn) | 16.9
N#Cc1cc(-c2ccccc2)nnc1Sc1ccccc1 | 15.2
COc1cccc(C(=O)O/N=C/c2ccc(Sc3ccc(C)cc3)nc2)c1 | 16.5
C=CCN1C=C2C(=O)C(C)(OC(=O)c3ccc(OC)cc3)C(=O)C(c3ccco3)=C2C=C1CCCC (stereo not drawn) | 16.4
COS(=O)(=O)[O-].Cn1nnc(CC[N+](C)(C)C)n1 | 15.3
Cc1cc2nc(-c3cccnc3SCC(=O)NC(C)C)[nH]c2cc1C | 7.83
Clc1ccc(-c2cc(CSc3ccccc3)on2)cc1 | 10.7
O=C(O)c1cc([N+](=O)[O-])cc2c1C=Cc1ccccc1O2 | 19.6

SMILES | hERG current change (%, negative = inhibition) at 1uM [%]
c1coc(CSc2ncnc3c2oc2ccccc23)c1 | 12.4
Cc1ccc(-n2c(SCC(=O)N3CCC(C(=O)O)CC3)nc3ccccc3c2=O)cc1C | 19.2
Nc1ccccc1/C=N\N=C/c1ccccc1N | 6.7
CCNc1ccc(C(=O)Nc2ccc3nc(C)sc3c2)cc1[N+](=O)[O-] | 8.82
CCOc1ccccc1CN1CCNC(=O)C1CC(=O)NC1CCCCC1 (stereo not drawn) | 12.8
Cc1ccc(OCC(=O)NNC(=O)CSc2ncc(C#N)c(N)n2)cc1 | 6.73
COc1ccc(CCNC(=O)c2cc3c(=O)n4ccccc4nc3n(Cc3ccco3)c2=N)cc1OC | -74.3
O=C(NCC1CCCO1)C1CCN(S(=O)(=O)N2CCCC2)CC1 (stereo not drawn) | 3.93
CN(C)c1ccc(C(=S)N2CCN(Cc3ccccc3)CC2)cc1 | -7.94
Cn1c(O)c(/C=N/N2CCCCC2)c(=O)[nH]c1=O | 9.92
CC1(C)CC(=O)C(N=Nc2cc3c(cc2[N+](=O)[O-])OCCO3)=C(O)C1 | 21
CC1=NN(C(=O)CCc2ccccc2O)C(O)(C(F)(F)F)C1 (stereo not drawn) | 8.68
NCCCC[C@H]1CNC(=O)C(=O)N1CCC12CC3CC(CC(C3)C1)C2 | 7.13
Cc1ccc(SCC(=O)OCC(=O)NC2CCCCCCC2)cc1 | 18.5
O=C(NCCc1ccccc1)C1CCN(Cc2cccc3ccccc23)CC1 | -1.42
Cc1ccc2nc(N3CCN(c4ccccc4F)CC3)c(C=O)c(=O)n2c1 | -4.86
O=C(CN(C1CCCCC1)S(=O)(=O)c1ccc(Cl)cc1)NCCCO | -1.44
O=C(Nc1ccccc1F)Nc1ccc([N+](=O)[O-])cc1Cl | 14.9
COc1ccc(NC(=O)CSCC(=O)N(C)Cc2c(F)cccc2Cl)cc1 | 4.83
COc1ccc2[nH]c(C(=O)Nc3ccccc3Cl)cc2c1 | 7.42
C=CCn1c(SCC(=O)Nc2ccc(-c3nc4ccc(C)cc4s3)cc2)nnc1-c1ccncc1 | 6.15
O=C(CN1C(=O)C2CC=CCC2C1=O)Nc1ccc(S(=O)(=O)NC2=NCCCCC2)cc1 (stereo not drawn) | 6.35
COc1ccc(C2CC3(CC(C)(C)NC(SC)=N3)Oc3cc(O)cc(C)c32)cc1.I (stereo not drawn) | -28.7
CCCN(C(=O)Cc1coc2cc(C)c(C)cc12)c1c(N)n(Cc2ccccc2)c(=O)[nH]c1=O | -1.29
O=C(c1ccc2ncsc2c1)N1CCCC(C(F)(F)F)C1 (stereo not drawn) | 21.9
CCn1nnc(NC(=S)NC(=O)c2ccc(-c3cccc(Cl)c3)o2)n1 | 12.2
CCOC(=O)C1CCN(C(=O)c2cc(S(=O)(=O)N3CCCCCC3)ccc2OC)CC1 | -7.42
